Reference: paper PMC9813392
Results are given in words; binding and its absence hold for the method and conditions named. For part of these data: In cells and extracts the contact can be indirect. Some entries that bind do so weakly or less than the wild type. Tags and fused reporters may be left off the sequences shown.

Tests used:
[1] = target: T1, Noc3-CC1Δ, yeast two-hybrid fusion (S. cerevisiae) (UniProt Q07896); assay: two-hybrid; Matchmaker system III (Clontech); BD- and AD-fusion proteins; growth on SCM-Trp-Leu-His plates; empty BD or AD vector as negative controls
T1 sequence: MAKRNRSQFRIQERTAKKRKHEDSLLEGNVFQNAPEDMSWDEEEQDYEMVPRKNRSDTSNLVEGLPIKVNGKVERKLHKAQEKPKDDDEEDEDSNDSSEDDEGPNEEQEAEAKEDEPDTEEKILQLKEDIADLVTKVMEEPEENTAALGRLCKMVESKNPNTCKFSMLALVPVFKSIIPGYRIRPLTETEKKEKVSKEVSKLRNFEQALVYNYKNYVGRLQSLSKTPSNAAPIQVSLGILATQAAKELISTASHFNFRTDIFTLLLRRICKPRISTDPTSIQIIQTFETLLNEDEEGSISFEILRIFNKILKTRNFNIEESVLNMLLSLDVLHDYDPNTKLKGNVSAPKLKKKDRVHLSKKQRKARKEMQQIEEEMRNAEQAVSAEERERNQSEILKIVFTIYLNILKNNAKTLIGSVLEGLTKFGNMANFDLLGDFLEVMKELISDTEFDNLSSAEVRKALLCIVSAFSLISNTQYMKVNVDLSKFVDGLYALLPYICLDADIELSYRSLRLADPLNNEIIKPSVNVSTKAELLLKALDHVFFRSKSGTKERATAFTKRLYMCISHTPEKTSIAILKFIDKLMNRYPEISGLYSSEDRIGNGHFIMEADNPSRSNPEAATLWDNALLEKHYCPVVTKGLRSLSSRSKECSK

[2] = target: T2, Noc3-CC2Δ, yeast two-hybrid fusion (BD-Noc3-CC2Δ) (S. cerevisiae) (UniProt Q07896); assay: as above
T2 sequence: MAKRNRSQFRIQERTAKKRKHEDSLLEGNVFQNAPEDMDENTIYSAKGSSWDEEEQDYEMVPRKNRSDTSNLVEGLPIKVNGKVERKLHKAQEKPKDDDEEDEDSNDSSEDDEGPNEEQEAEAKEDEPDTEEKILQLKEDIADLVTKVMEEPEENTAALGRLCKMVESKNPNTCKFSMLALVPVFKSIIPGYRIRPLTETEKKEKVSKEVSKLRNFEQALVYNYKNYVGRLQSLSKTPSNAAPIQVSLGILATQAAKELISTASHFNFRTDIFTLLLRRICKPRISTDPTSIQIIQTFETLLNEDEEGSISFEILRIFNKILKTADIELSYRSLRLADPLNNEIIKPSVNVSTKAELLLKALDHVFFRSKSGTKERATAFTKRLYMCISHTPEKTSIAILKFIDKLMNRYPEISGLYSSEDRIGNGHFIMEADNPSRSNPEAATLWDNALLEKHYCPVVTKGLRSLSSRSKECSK

[3] = target: T3, Noc3p, full length, yeast two-hybrid fusion (BD-NOC3 and AD-Noc3p) (S. cerevisiae) (UniProt Q07896); assay: as above
T3 sequence: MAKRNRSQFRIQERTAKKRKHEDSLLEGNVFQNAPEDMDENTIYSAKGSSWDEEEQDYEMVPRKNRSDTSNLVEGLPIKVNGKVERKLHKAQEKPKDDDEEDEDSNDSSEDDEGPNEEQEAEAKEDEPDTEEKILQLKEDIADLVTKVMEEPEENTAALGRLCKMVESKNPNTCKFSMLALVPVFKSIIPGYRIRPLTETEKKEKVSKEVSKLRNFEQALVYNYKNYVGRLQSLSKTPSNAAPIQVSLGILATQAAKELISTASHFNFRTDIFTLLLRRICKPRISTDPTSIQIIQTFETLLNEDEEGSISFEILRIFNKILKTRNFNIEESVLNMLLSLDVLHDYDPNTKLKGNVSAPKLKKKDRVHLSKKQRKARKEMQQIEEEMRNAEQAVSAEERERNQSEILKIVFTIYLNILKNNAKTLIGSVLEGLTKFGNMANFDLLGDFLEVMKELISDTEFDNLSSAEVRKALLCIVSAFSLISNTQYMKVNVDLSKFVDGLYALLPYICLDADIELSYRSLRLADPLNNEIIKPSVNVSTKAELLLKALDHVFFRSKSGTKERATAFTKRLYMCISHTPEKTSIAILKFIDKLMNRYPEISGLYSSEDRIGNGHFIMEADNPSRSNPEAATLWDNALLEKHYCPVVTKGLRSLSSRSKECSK

[4] = target: T4, Orc3p, endogenous, in yeast cell extract (S. cerevisiae (endogenous in yeast cells)) (UniProt P54790); assay: co-sedimentation; 20–60% sucrose gradient of total extracts from cross-linked NOC3-HA cells grown at 25°C (asynchronous, G1-phase, M-phase); fractions blotted with anti-HA and anti-Orc3
T4 sequence: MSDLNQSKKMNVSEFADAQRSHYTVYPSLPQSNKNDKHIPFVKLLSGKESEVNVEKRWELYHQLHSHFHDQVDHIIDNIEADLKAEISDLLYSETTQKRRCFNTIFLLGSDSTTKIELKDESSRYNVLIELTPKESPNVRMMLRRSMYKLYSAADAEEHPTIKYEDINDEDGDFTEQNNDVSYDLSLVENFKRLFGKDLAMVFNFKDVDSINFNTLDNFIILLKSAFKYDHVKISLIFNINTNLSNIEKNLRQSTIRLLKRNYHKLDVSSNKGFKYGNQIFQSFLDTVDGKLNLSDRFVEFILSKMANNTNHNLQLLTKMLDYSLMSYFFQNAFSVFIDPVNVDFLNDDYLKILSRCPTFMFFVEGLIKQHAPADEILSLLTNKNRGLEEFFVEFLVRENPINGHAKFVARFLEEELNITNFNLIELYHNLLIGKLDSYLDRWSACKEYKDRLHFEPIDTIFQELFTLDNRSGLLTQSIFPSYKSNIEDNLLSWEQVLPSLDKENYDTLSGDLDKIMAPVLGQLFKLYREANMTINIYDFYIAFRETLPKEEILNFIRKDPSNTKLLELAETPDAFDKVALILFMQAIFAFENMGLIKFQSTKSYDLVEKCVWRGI

[5] = target: Noc3p, two differently tagged copies (Noc3-FLAG and Myc-Noc3) (S. cerevisiae) (UniProt Q07896); assay: co-IP; cells synchronized in G1-phase by α-factor; anti-FLAG IP
[6] = target: Noc3p, two differently tagged copies (Noc3-FLAG and Myc-Noc3) (S. cerevisiae) (UniProt Q07896); assay: condition: only cells synchronized in M-phase (nocodazole); co-IP; cells synchronized in M-phase by nocodazole; anti-FLAG IP
[7] = target: Noc3p, two differently tagged copies (Noc3-FLAG and Myc-Noc3) (S. cerevisiae) (UniProt Q07896); assay: co-IP; YL1923 (MET-CDC6) cells released from M-phase into α-factor, ± methionine (Cdc6p depletion); anti-FLAG IP, control IgG
[8] = target: Noc3p, two differently tagged copies (Noc3-FLAG and Myc-Noc3) (S. cerevisiae) (UniProt Q07896); assay: condition: only cells synchronized in S-phase (hydroxyurea); co-IP; cells synchronized in S-phase by hydroxyurea; anti-FLAG IP
[9] = target: Noc3p, two differently tagged copies (Noc3-FLAG and Myc-Noc3) (S. cerevisiae) (UniProt Q07896); assay: co-IP; W303-1A cells expressing Noc3-FLAG and Myc-Noc3, synchronized in M-phase and released; samples at 20–60 min after release
[10] = target: Noc3p, two differently tagged copies (Noc3-FLAG and Myc-Noc3) (S. cerevisiae) (UniProt Q07896); assay: condition: only 60–80 min after release, cells in S-phase; co-IP; same time course as a8; samples at 60–80 min, cells in S-phase by the text
[11] = target: Noc3p, two differently tagged copies (Noc3-FLAG and Myc-Noc3) (S. cerevisiae) (UniProt Q07896); assay: co-IP; cycling (asynchronous) yeast cells; DNase I–digested extracts; IP with anti-FLAG, anti-Myc or the indicated antibodies, control mouse IgG
[12] = target: Noc3p, two differently tagged copies (Noc3-FLAG and Myc-Noc3) (S. cerevisiae) (UniProt Q07896); assay: co-IP; G1-phase ORC1-FRB cells grown ± rapamycin (Orc1-FRB nuclear depletion), expressing Myc-Noc3 and Noc3-FLAG; anti-FLAG IP, control mouse IgG

B1: Noc3p, full length, yeast two-hybrid fusion (BD-NOC3 and AD-Noc3p) (protein, UniProt Q07896 1-663)
chain: MAKRNRSQFRIQERTAKKRKHEDSLLEGNVFQNAPEDMDENTIYSAKGSSWDEEEQDYEMVPRKNRSDTSNLVEGLPIKVNGKVERKLHKAQEKPKDDDEEDEDSNDSSEDDEGPNEEQEAEAKEDEPDTEEKILQLKEDIADLVTKVMEEPEENTAALGRLCKMVESKNPNTCKFSMLALVPVFKSIIPGYRIRPLTETEKKEKVSKEVSKLRNFEQALVYNYKNYVGRLQSLSKTPSNAAPIQVSLGILATQAAKELISTASHFNFRTDIFTLLLRRICKPRISTDPTSIQIIQTFETLLNEDEEGSISFEILRIFNKILKTRNFNIEESVLNMLLSLDVLHDYDPNTKLKGNVSAPKLKKKDRVHLSKKQRKARKEMQQIEEEMRNAEQAVSAEERERNQSEILKIVFTIYLNILKNNAKTLIGSVLEGLTKFGNMANFDLLGDFLEVMKELISDTEFDNLSSAEVRKALLCIVSAFSLISNTQYMKVNVDLSKFVDGLYALLPYICLDADIELSYRSLRLADPLNNEIIKPSVNVSTKAELLLKALDHVFFRSKSGTKERATAFTKRLYMCISHTPEKTSIAILKFIDKLMNRYPEISGLYSSEDRIGNGHFIMEADNPSRSNPEAATLWDNALLEKHYCPVVTKGLRSLSSRSKECSK
binding [1]: binds | binding [2]: no binding | binding [3]: binds

B2: Noc3-HA (endogenous Noc3p tagged with HA, NOC3-HA cells) (protein, UniProt Q07896 1-663)
chain: MAKRNRSQFRIQERTAKKRKHEDSLLEGNVFQNAPEDMDENTIYSAKGSSWDEEEQDYEMVPRKNRSDTSNLVEGLPIKVNGKVERKLHKAQEKPKDDDEEDEDSNDSSEDDEGPNEEQEAEAKEDEPDTEEKILQLKEDIADLVTKVMEEPEENTAALGRLCKMVESKNPNTCKFSMLALVPVFKSIIPGYRIRPLTETEKKEKVSKEVSKLRNFEQALVYNYKNYVGRLQSLSKTPSNAAPIQVSLGILATQAAKELISTASHFNFRTDIFTLLLRRICKPRISTDPTSIQIIQTFETLLNEDEEGSISFEILRIFNKILKTRNFNIEESVLNMLLSLDVLHDYDPNTKLKGNVSAPKLKKKDRVHLSKKQRKARKEMQQIEEEMRNAEQAVSAEERERNQSEILKIVFTIYLNILKNNAKTLIGSVLEGLTKFGNMANFDLLGDFLEVMKELISDTEFDNLSSAEVRKALLCIVSAFSLISNTQYMKVNVDLSKFVDGLYALLPYICLDADIELSYRSLRLADPLNNEIIKPSVNVSTKAELLLKALDHVFFRSKSGTKERATAFTKRLYMCISHTPEKTSIAILKFIDKLMNRYPEISGLYSSEDRIGNGHFIMEADNPSRSNPEAATLWDNALLEKHYCPVVTKGLRSLSSRSKECSK
binding [4]: binds

B3: Noc3p, two differently tagged copies (Noc3-FLAG and Myc-Noc3) (protein, UniProt Q07896 1-663)
chain: MAKRNRSQFRIQERTAKKRKHEDSLLEGNVFQNAPEDMDENTIYSAKGSSWDEEEQDYEMVPRKNRSDTSNLVEGLPIKVNGKVERKLHKAQEKPKDDDEEDEDSNDSSEDDEGPNEEQEAEAKEDEPDTEEKILQLKEDIADLVTKVMEEPEENTAALGRLCKMVESKNPNTCKFSMLALVPVFKSIIPGYRIRPLTETEKKEKVSKEVSKLRNFEQALVYNYKNYVGRLQSLSKTPSNAAPIQVSLGILATQAAKELISTASHFNFRTDIFTLLLRRICKPRISTDPTSIQIIQTFETLLNEDEEGSISFEILRIFNKILKTRNFNIEESVLNMLLSLDVLHDYDPNTKLKGNVSAPKLKKKDRVHLSKKQRKARKEMQQIEEEMRNAEQAVSAEERERNQSEILKIVFTIYLNILKNNAKTLIGSVLEGLTKFGNMANFDLLGDFLEVMKELISDTEFDNLSSAEVRKALLCIVSAFSLISNTQYMKVNVDLSKFVDGLYALLPYICLDADIELSYRSLRLADPLNNEIIKPSVNVSTKAELLLKALDHVFFRSKSGTKERATAFTKRLYMCISHTPEKTSIAILKFIDKLMNRYPEISGLYSSEDRIGNGHFIMEADNPSRSNPEAATLWDNALLEKHYCPVVTKGLRSLSSRSKECSK
binding [5]: binds | binding [6]: no binding | binding [7]: binds | binding [8]: no binding | binding [9]: binds | binding [10]: no binding | binding [11]: binds | binding [12]: binds
